Laboratory results reported in paper PMC6212790.
Some of the results follow. At the low end of the ranking, values are background and their order means little.

What follows are sequences tested against T1, GST-Rok-C97-191 (UniProt O34857) (assay: protein binding microarray). Conditions: Rok is a gene silencer of Bacillus subtilis; high values mean tight binding; most listed sequences are background and not binding sites; double strand, one strand shown.
T1 sequence: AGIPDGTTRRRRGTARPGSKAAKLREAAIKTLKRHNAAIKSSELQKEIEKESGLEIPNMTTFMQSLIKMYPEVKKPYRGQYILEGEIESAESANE
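Further: rank score from −0.5 (least bound) to 0.5 (best bound).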

| Sequence | binding signal [E-score] |
| --- | --- |
| TATTGCGA | 0.173 |
| GGCCGCCC | -0.312 |
| GTTCGGAA | 0.0788 |
| GTTCCGGA | -0.09 |
| ACTACTCG | 0.159 |
| GGACATGA | -0.135 |
| GATTGGGA | -0.215 |
| TACTGTGA | 0.179 |
| AGTTTACC | 0.0748 |
| GACGGTCC | -0.3 |
| CCTACTCC | -0.0565 |
| AGCGCTAA | 0.161 |
| GACTGTGC | -0.0664 |
| AATCCCTG | -0.0199 |
| GCCGAGGC | -0.0855 |
| ATAAAAGC | 0.16 |
| GCGGCACC | -0.306 |
| GTCGAGTA | 0.105 |
| GTACACAC | -0.0207 |
| ATGGTGGC | -0.232 |
| TAGGCTAA | 0.00458 |
| CGGATCGA | -0.106 |
| AGGCGTGG | -0.0664 |
| CTTGATGC | -0.273 |
| CAAGGTCG | -0.133 |

| Sequence | binding signal [E-score] |
| --- | --- |
| CGCTATAC | 0.0333 |
| ATGTCGGA | 0.122 |
| CAAACGAG | 0.0394 |
| AAATGGTC | 0.0445 |
| CACGGCGC | -0.177 |
| CACCCCTG | -0.181 |
| AATTTCTA | 0.355 |
| TCGGTGCA | -0.0315 |
| ATACATAG | 0.371 |
| AAAGGACT | -0.175 |
| CAGATCGC | -0.157 |
| ATGGCGCA | -0.0193 |
| CAGGTTCA | -0.054 |
| ATTTTGTA | 0.228 |
| CACTTACC | -0.0895 |
| ACAATGTA | 0.227 |
| TGCCGGCA | -0.12 |
| CGACGTCA | 7.12e-05 |
| GGAGAAAC | -0.116 |
| CTGCCATC | -0.229 |
| GGACACGA | -0.133 |
| GTAGACAA | -0.0286 |
| CCTAGACG | -0.0529 |
| CTCAGCCA | -0.111 |
| ACAATCGT | 0.0333 |

| Sequence | binding signal [E-score] |
| --- | --- |
| ACGCACTA | 0.294 |
| CCAGCCCA | -0.138 |
| ATCGGAGG | -0.162 |
| AAGTCCAA | -0.179 |
| CTGATATA | 0.258 |
| AGCACCGG | -0.209 |
| CACGTATA | 0.228 |
| CGCATTCC | -0.0738 |
| CGGCTGAC | -0.144 |
| AGTAAGTA | 0.211 |
| CACAGCCG | -0.15 |
| CAAGTTTA | 0.068 |
| ATATCGTC | 0.124 |
| GTCGATTA | 0.0218 |
| CTTCCGGA | -0.215 |
| CGAGTAAA | 0.128 |
| AAACCCTT | 0.036 |
| CGGTGCCA | -0.302 |
| ACATTACC | 0.0874 |
| TCTCAAGA | -0.0714 |
| AACTCTAC | 0.183 |
| CAGTGACC | -0.203 |
| CATCAGTC | -0.0234 |
| CGTAACAA | 0.0497 |
| GTTAAAGA | -0.039 |

| Sequence | binding signal [E-score] |
| --- | --- |
| CATCCCAA | -0.127 |
| ATTATACC | 0.228 |
| CCACGTGG | -0.0824 |
| ATTACGGA | 0.162 |
| AGGACTAC | -0.116 |
| AATAACAC | 0.237 |
| CAAAATCA | 0.161 |
| CCATTACC | 0.0875 |
| CTAAATCC | 0.23 |
| GAAACATA | 0.328 |
| ATAGTCGG | 0.0309 |
| CCACCTAG | -0.177 |
| GAGGCTCA | -0.0913 |
| ATGCGCTC | -0.148 |
| ATTAGCCG | 0.102 |
| GAGCGAGC | -0.189 |
| AGGAGAAA | 0.073 |
| CTGTTAAA | 0.0207 |
| CACAGAGC | -0.228 |
| CTGTTTTA | 0.202 |
| GTTAGGCA | -0.0234 |
| GACGCCGC | -0.162 |
| CGCACTAC | -0.0122 |
| GGGCCGCA | -0.326 |
| ATCATCTA | 0.148 |

| Sequence | binding signal [E-score] |
| --- | --- |
| GACAATAC | -0.0699 |
| ATTCTTTC | -0.0403 |
| TATACTCA | 0.139 |
| CATTACCG | -0.000678 |
| AGGTATGA | 0.191 |
| ACGTACTG | 0.0188 |
| CGAATTAG | 0.279 |
| AAGAACAG | -0.168 |
| ACCGAGCA | -0.0067 |
| GGAGGACA | -0.142 |
| AACTTTCG | 0.0449 |
| AAGTGTAG | 0.225 |
| ATAGAGGG | -0.121 |
| TCTTCGAA | -0.0497 |
| AGTACCAG | 0.0658 |
| GTCCACAC | -0.243 |
| ATATTCGA | 0.26 |
| GACTCCGA | 0.0131 |
| CTTATGGA | -0.0844 |
| AGCGTCCT | -0.248 |
| GTATACGA | 0.162 |
| ACGACATA | 0.123 |
| CAGTTTAA | 0.0793 |
| GGTGCTGA | -0.0629 |
| AGGTGGAC | -0.27 |

| Sequence | binding signal [E-score] |
| --- | --- |
| GCTTTAAC | -0.221 |
| ATTAGCGA | 0.0906 |
| AAAGTTTA | -0.00556 |
| AATTTTAG | 0.259 |
| GATGAGGC | -0.122 |
| ACATGAGG | -0.276 |
| GGTGTACA | 0.021 |
| CCGTTTAA | -0.0736 |
| CCGCCCGG | -0.348 |
| GGAGCACC | -0.178 |
| AAGATACA | 0.151 |
| CCAAGCAA | -0.115 |
| AGCAGTGA | -0.105 |
| CATTTTGA | 0.182 |
| CAGTCTTA | 0.0456 |
| CTCAAGCC | -0.239 |
| AGAAGAAA | 0.00841 |
| AGTTTCGG | 0.102 |
| ACCATAAG | 0.168 |
| CTGTGCAA | -0.0661 |
| ACTGTCGG | 0.0846 |
| AGATGCTC | -0.0199 |
| CCGTTGAG | -0.108 |
| AGCTGGGC | -0.305 |
| CTAGGCCA | -0.172 |

| Sequence | binding signal [E-score] |
| --- | --- |
| CGTGAGAC | -0.0975 |
| AATAAATG | 0.0669 |
| GGAGGTCA | -0.249 |
| TCAGTTCA | -0.0387 |
| CAATCCTC | -0.119 |
| AAGCAACA | -0.0329 |
| AGACAGGA | -0.221 |
| ATCAATGG | 0.0807 |
| ACAAAGGA | -0.0833 |
| ACACATAG | 0.0608 |
| ATTCTCAA | 0.108 |
| CCTCAAAC | -0.0736 |
| GGTTCTCA | 0.034 |
| CGGCCACC | -0.251 |
| CTGACTTA | 0.0769 |
| AGGTGGGG | -0.391 |
| ACACCGGG | -0.255 |
| GCTTGCCC | -0.33 |
| TGTCAAAA | -0.0694 |
| CAAGAGTC | -0.0784 |
| CCCCCGAG | -0.168 |
| ATTGAGCG | -0.0196 |
